In all, about 1,100 sequences were measured (“thermal melting temperature (Tm) of peptide-HLA complex”: median about 58, lowest 2% from about 42 on). The list shows a part of the results.
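Also: cell lysates heated 10 min at 37–73 °C, remaining pHLA pulled down with pan-class I antibody, peptides quantified by DIA-MS versus 37 °C, Tm where half the complex is lost.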

The experiment has as its target HLA-A*02:01. The experiment in a line: thermal melting temperature (Tm) of peptide-HLA complex; higher = more thermostable pHLA complex. The following applies: C1R-A*02:01.
ALLERGYSL had a thermal melting temperature of 60.4 °C.
As for SIHDVTFQV, the thermal melting temperature worked out at 57.4 °C.
KLGDFGLLV displayed a thermal melting temperature of 60.4 °C.
Next, TLIGLSIKV: 56.7 °C; SLLSGRISTL: 49.1 °C.
YISEENFRV returned a thermal melting temperature of 57.8 °C.
The sequence VLLEEGEAQRL showed a thermal melting temperature of 51.8 °C.
Take KLYNPENIYL: the thermal melting temperature came to 58.5 °C.
Sequence ILLPRPPQV came in with a thermal melting temperature of 64.3 °C.
Sequence KIIDEDGLLNL showed a thermal melting temperature of 44 °C.
For FLRGPALELV, the thermal melting temperature stood at 60 °C.
The sequence ALDRDNFEL registered a thermal melting temperature of 47.8 °C.
TQLGPPYHIL had a thermal melting temperature of 51.3 °C.
GVAESIHLWEV displayed a thermal melting temperature of 60.5 °C.
With YLGPHIASV, the thermal melting temperature stood at 61.9 °C.
Next, AMIELVERL: 54 °C; FLTDSNNIKEV: 60.6 °C.
Take NIIPRFVQV: the thermal melting temperature is 56.6 °C.
Sequence GLTEALHFV showed a thermal melting temperature of 64.6 °C.
As to TLWPEVQKL, the thermal melting temperature came to 55.3 °C.
As for ALSEKLARL, the thermal melting temperature turned out to be 58.7 °C.
Next, ALLGDLTKA: 57.5 °C; TVLTQEAIITV: 49.9 °C; ALLDRIVSV: 64.2 °C.
LLYQEGAKMAV registered a thermal melting temperature of 58.3 °C.
Consider VLSEENFKV, for which the thermal melting temperature came to 58.4 °C.
Consider ILLDQTVRV, for which the thermal melting temperature was 61.5 °C.
As for SLDAKEIYL, the thermal melting temperature was 50.5 °C.
As to LLQDKQFEL, the thermal melting temperature is 58.9 °C.
RIIDVVYNA showed a thermal melting temperature of 57.7 °C.
Next, RLFDDVPQV: 64.7 °C.
Consider SLVDTPKQIQL, for which the thermal melting temperature amounted to 47.9 °C.
Sequence SLLNPPETLNL yielded a thermal melting temperature of 54.9 °C.
Take VMQDPEFLQSV: the thermal melting temperature was 59.6 °C.
On to SLEQRLNEV, for which the thermal melting temperature came out at 57.8 °C.
The sequence ILDQKVALL registered a thermal melting temperature of 41.7 °C.
Next, KQYGNEVFL: 55.7 °C.
As for ILTEAIKAA, the figure is 59.3 °C.
RMISEELVAA: the thermal melting temperature turned out to be 53.2 °C.
Consider FLPQGFPDSV, for which the thermal melting temperature was 45.8 °C.
GLKGRVFEV had a thermal melting temperature of 61.3 °C.
AMPALAPPEV displayed a thermal melting temperature of 53.8 °C.
Take QLAQFVHEV: the thermal melting temperature is 62.3 °C.
Regarding HLDESLVLL, the thermal melting temperature turned out to be 49 °C.
The sequence AVLPFSPAL had a thermal melting temperature of 59 °C.
Next, TLSDLRVYL: 64.7 °C; WLEENVHEV: 58.2 °C.
For KLQEFLQTL, the thermal melting temperature was 60.3 °C.
WLKQEVPEV: the thermal melting temperature was determined as 59.9 °C.
As for GLSPEIHTL, the figure is 44.9 °C; as for SLLDGHFVL, 40.1 °C; as for KVLEVTEEFGV, 62.6 °C.
In turn, ALNEQIARL showed a thermal melting temperature of 58.3 °C.
Consider FMLTQPHSV, for which the thermal melting temperature was 59 °C.
On to ALANGVSRI, for which the thermal melting temperature was 55.8 °C.
ALAPGLPTA had a thermal melting temperature of 63.1 °C.
